From patent US20100092429A1, “Composition” (Danisco A/S, priority 2006, published 2010)
Like-named read-outs stand apart in the source and are kept apart here.

Test system: Cl. perfringens
Assay type: cell-based, Clostridium perfringens
Settings: 24 h, 1 w/v-% carbohydrate

OC[C@H]1O[C@H](O)[C@H](O)[C@@H](O)[C@@H]1O [Glucose, Alpha-D-Glucose]
average area under the growth curve without medium (Table 9 first experiment, C. perfringens): 1006 | average area under the growth curve without medium (Table 10 second experiment, Cl. perfringens): 1059
